Where “and” joins values, the source holds several entries; their conditions need not be identical. Equal entries are not always repeated. At least one read-out could not be matched to a standard name with certainty.
Tests used:
[1] = system: sciatic nerve; assay: Sciatic nerve block in rats: duration of thermal nociceptive (sensory) block, modified hotplate test; type: in vivo; settings: rat sciatic nerve block
Excerpt: Sciatic Nerve Block and Neurobehavioral Testing. Animals were cared for in compliance with protocols approved by the Children's Hospital Animal Care and Use Committee, and the Massachusetts Institute of Technology Committee on Animal Care, which conformed to guidelines of the International Association for the Study of Pain. Adult male Sprague-Dawley rats (Charles River Laboratories) weighing 320-450 g were housed in groups, in a 6 AM to 6 PM light-dark cycle. Under brief isoflurane-oxygen anesthesia, a 23G needle was introduced postero-medial to the greater trochanter, until bone was contacted, and 0.3 mL of test solution was injected over the sciatic nerve. Thermal nociception was assessed by a modified hotplate test, and motor function via a weight-bearing test. […] Motor strength was assessed with a weight-bearing test. In brief, the animal was held over a digital balance such that it could bear weight with 1 hind paw at a time. The maximum weight that it could bear was recorded. The duration of motor blockade was defined as the time for weight bearing to return halfway to normal from maximal block. The halfway point for each rat was defined as […].

[2] = biological target: peak Nav1.5 (Homo sapiens, UniProt Q14524); assay: Whole-cell patch clamp, peak Nav1.5 current in stably transfected HEK cells; settings: individual cell (raw data)
Method: These experiments were designed to examine the acute effects of 4Sa (ZYK2312-1), 4Sb (ZYK2312-2), and bupivacaine on hERG and peak Nav1.5 currents recorded from stably transfected HEK cells.
Experimental Methods: Currents were measured using the whole-cell variant of the patch clamp method. Glass pipettes were pulled from borosilicate glass by a horizontal puller (Sutter Instruments, USA). Pipette tip resistance was approximately 1 to 2 MΩ when filled with internal solutions. Series resistance was compensated electronically by approximately 60-80%. Bath temperature was measured by a thermistor placed near the cell under study. An Axopatch 1-B amplifier (Axon Instruments, Foster City, CA) was used for whole-cell voltage clamping. Creation of voltage clamp pulses and data acquisition was controlled by a computer running pClamp software (ver 9.2 Axon Instruments). After rupture of the cell membrane (entering whole-cell mode), current kinetics and amplitudes were allowed to stabilize as the cell was dialyzed with internal solution and paced every 5 seconds (typically 2 to 3 minutes). Peak INa was elicited using a pulse pattern with fixed amplitudes (conditioning prepulse: −120 mV for 50 ms; depolarizing test step to −30 mV for 20 ms). hERG current was elicited with a 500 ms pulse to +10 mV followed by a 500 ms pulse to −40 mV (holding potential=[…]). Cells were perfused at each testing concentration until a steady-state was reached.
Raw data and mean±SEM are given. Data are presented as percent reduction of current amplitude. […] Each cell served as its own control. A nonlinear curve-fitting routine was utilized to fit a three-parameter Hill equation to the results using MicroCal Origin, version 6.0 software. The equation is:
[formula] where Vmax=100 and k and n are unconstrained variables.

Sequence of peak Nav1.5 (Q14524 whole entry): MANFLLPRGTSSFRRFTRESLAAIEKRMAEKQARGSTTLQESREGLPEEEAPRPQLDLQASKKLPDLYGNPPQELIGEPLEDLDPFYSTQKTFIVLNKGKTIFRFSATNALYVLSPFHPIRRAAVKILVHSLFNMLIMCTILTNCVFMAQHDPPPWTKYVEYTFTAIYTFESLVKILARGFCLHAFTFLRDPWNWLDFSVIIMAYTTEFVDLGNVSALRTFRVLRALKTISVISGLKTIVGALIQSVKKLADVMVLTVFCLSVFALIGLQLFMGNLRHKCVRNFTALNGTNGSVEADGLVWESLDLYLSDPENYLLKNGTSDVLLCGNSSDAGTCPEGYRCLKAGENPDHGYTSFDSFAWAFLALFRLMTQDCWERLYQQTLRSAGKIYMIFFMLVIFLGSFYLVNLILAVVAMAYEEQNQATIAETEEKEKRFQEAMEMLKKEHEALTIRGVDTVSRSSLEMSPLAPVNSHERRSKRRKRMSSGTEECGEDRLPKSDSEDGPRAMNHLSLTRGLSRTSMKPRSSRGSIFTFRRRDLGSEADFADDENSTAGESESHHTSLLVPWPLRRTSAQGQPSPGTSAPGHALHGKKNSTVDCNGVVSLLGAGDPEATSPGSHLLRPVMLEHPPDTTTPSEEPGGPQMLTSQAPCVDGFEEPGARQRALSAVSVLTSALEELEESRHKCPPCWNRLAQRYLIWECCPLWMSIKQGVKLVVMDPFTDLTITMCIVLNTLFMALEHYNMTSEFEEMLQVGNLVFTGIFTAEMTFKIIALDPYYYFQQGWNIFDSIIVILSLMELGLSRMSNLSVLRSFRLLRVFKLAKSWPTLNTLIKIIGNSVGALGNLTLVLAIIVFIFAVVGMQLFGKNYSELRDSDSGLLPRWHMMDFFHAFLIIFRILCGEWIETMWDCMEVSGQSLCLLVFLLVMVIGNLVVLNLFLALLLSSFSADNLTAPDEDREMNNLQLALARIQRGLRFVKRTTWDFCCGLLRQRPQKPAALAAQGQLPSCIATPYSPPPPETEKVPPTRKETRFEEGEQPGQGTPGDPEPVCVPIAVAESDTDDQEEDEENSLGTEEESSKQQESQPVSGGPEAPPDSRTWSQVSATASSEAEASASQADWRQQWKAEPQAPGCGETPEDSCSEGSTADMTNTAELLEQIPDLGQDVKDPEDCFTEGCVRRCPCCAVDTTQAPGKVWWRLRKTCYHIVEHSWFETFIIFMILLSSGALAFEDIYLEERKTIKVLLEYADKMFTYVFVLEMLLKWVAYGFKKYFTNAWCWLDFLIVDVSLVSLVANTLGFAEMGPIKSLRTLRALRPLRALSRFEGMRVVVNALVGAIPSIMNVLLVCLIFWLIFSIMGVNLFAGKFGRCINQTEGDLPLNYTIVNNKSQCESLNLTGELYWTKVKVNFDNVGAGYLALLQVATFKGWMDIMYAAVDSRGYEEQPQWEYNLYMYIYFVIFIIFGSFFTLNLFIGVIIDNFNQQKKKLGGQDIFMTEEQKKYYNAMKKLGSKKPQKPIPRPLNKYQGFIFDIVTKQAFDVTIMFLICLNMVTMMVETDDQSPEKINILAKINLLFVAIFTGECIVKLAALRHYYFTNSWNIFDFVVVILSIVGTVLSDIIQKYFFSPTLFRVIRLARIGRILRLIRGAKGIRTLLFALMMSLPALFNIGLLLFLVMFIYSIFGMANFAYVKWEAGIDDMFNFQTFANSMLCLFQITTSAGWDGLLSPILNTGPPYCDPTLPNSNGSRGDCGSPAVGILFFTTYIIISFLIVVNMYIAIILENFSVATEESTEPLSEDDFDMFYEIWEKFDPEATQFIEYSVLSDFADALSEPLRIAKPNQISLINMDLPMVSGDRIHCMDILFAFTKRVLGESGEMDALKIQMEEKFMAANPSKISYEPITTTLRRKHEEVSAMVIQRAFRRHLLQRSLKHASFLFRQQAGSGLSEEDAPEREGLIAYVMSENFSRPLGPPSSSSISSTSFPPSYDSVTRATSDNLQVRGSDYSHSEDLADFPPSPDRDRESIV

SMILES | Sensory:Motor Block Ratio ([1]; dose conc 10 mM) | Sensory:Motor Block Ratio ([1]; dose conc 15 mM) | also measured
CCCN1CCCC[C@H]1C(=O)Nc1c(C)cccc1C (single isomer, unassigned) [(S)-Ropivacaine, reference compound] | 1 | 1 | 
CCC[N@@+]1(CC(=O)NC)CCCC[C@H]1C(=O)Nc1c(C)cccc1C [Compound 26Sa, 2-((2,6-dimethylphenyl)carbamoyl)-1-(2-(methylamino)-2-oxoethyl)-1-propyl-1-piperidin-2-ylium bromide] | 1.3 |  | 
CCC[N+]1(COC(C)=O)CCCC[C@H]1C(=O)Nc1c(C)cccc1C.[Br-] (some centres unmarked) [Compound 10S, 1-(Acetoxymethyl)-2-((2,6-dimethylphenyl)carbamoyl)-1-propylpiperidin-1-ium bromide] | 1.6 |  | Sensory:Motor Block Ratio ([1]; dose conc 5 mM): 3.7
CCCC[N+]1(COC(C)=O)CCCCC1C(=O)Nc1c(C)cccc1C.[Br-] (centres unmarked) [Compound 9, 1-(Acetoxymethyl)-1-butyl-2-((2,6-dimethylphenyl)carbamoyl)piperidin-1-ium bromide] | 1.6 | 1.5 | Sensory:Motor Block Ratio ([1]; dose conc 5 mM): 2.6
CCC[N@+]1(CC(=O)OC)CCCC[C@H]1C(=O)Nc1c(C)cccc1C.[Br-] [Compound 4Sa, 2-((2,6-Dimethylphenyl)carbamoyl)-1-(2-methoxy-2-oxoethyl)-1-propylpiperidin-1-ium bromide] | 2 |  | peak Nav1.5 current amplitude, percent reduction ([2]; 100 μM): 0% and 2.1% and 4.9%; peak Nav1.5 current amplitude, percent reduction ([2]; 300 μM): 5.8% and 7.2%; peak Nav1.5 current amplitude, percent reduction ([2]; 1000 μM): 14.5% and 18.0%
CCC[N@@+]1(CC(=O)OC)CCCC[C@H]1C(=O)Nc1c(C)cccc1C.[Br-] [Compound 4Sb, 2-((2,6-Dimethylphenyl)carbamoyl)-1-(2-methoxy-2-oxoethyl)-1-propylpiperidin-1-ium bromide] |  |  | peak Nav1.5 current amplitude, percent reduction ([2]; 300 μM): 2.8% and 4.0% and 5.9%; peak Nav1.5 current amplitude, percent reduction ([2]; 1000 μM): 10.2% and 15.9%
COC(=O)C[N@@+]1(C)CCCC[C@@H]1C(=O)Nc1c(C)cccc1C (racemic) [Compound 3b, 2-((2,6-Dimethylphenyl)carbamoyl)-1-(2-methoxy-2-oxoethyl)-1-methylpiperidin-1-ium bromide] | 1.5 |  | 
CCCC[N@+]1(CC(=O)OC)CCCC[C@H]1C(=O)Nc1c(C)cccc1C (racemic) [2a + 2b, 1-Butyl-2-((2,6-dimethylphenyl)carbamoyl)-1-(2-methoxy-2-oxoethyl)piperidin-1-ium bromide] | 3 |  | Sensory:Motor Block Ratio ([1]; dose conc 7.5 mM): 4
CCC[N@+]1(CC(=O)OC)CCCC[C@H]1C(=O)Nc1c(C)cccc1C.[Br-] (racemic) [4Sa + 4Sb, 2-((2,6-Dimethylphenyl)carbamoyl)-1-(2-methoxy-2-oxoethyl)-1-propylpiperidin-1-ium bromide] | 2.8 | 3.7 | Sensory:Motor Block Ratio ([1]; dose conc 7.5 mM): 10.8

From patent publication US12454509B2, “Local anesthetics with selective-sensory nerve blockade” (Children's Medical Center Corporation, priority 2019, dated 2025)
